The campaign covered roughly 310,000 compounds. About 2,200 (0.71%) showed an effect of 50% or more. Effects have a minus sign here. The list shows a part of the results.
target: human ether-à-go-go-related gene (hERG) potassium channel (human, UniProt Q12809); assay: primary screen, population patch clamp on CHO cells stably expressing hERG
Sequence (Q12809 whole entry, looked up): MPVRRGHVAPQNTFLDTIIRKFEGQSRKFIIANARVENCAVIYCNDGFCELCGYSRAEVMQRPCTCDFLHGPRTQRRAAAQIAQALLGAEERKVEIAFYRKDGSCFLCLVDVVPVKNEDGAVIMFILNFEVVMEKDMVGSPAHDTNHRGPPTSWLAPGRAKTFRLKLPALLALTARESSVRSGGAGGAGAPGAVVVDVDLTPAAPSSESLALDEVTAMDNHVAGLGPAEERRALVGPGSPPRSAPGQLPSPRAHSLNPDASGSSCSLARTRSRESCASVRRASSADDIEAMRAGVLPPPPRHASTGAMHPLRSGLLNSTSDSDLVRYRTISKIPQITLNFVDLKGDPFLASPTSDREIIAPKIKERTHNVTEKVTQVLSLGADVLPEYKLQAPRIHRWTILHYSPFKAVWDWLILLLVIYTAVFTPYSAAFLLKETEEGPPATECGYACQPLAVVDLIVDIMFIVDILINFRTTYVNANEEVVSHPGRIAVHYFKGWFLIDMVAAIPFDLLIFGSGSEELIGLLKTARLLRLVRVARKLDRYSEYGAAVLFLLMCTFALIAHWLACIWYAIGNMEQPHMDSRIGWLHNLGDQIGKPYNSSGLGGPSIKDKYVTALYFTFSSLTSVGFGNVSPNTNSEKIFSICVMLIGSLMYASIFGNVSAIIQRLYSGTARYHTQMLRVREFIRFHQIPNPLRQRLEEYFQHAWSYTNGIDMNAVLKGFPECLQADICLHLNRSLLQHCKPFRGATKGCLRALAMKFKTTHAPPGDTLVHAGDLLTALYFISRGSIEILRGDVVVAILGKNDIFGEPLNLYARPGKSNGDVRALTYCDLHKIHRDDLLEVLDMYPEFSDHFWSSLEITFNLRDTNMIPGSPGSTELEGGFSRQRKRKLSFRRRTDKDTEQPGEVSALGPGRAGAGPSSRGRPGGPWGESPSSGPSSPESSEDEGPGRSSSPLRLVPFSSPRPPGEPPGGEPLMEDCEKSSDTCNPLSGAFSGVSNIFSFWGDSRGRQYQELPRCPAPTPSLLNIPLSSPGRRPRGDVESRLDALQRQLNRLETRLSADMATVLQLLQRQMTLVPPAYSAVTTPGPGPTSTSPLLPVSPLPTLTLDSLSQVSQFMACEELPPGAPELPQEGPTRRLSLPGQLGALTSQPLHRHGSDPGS

**Q.** How did the “hERG current change (%, negative = inhibition) at 1uM” value turn out when `COc1cccc([C@@H]2Oc3ccc(OC)cc3C(=O)[C@H]2O)c1` was run?
**A.** The value was 17.4%.

**Q.** Which “hERG current change (%, negative = inhibition) at 1uM” value does the source give for `CC1=CC(=O)C(C(C)C)=C/C1=N/OC(=O)c1cccc([N+](=O)[O-])c1` here?
**A.** Its value is 7.17%.

**Q.** How did the “hERG current change (%, negative = inhibition) at 1uM” value turn out when `Cc1oc(-c2cccc(F)c2)nc1CN1CCCCC1CCn1cccn1` (stereo not drawn) was run?
**A.** The value was -40.1%.

**Q.** How did the “hERG current change (%, negative = inhibition) at 1uM” value turn out when `CC1CCCC(NC(=O)c2nn(C)c3c2CS(=O)(=O)c2ccccc2-3)C1C` (stereo not drawn) was run?
**A.** Its value is 8.09%.

**Q.** Which “hERG current change (%, negative = inhibition) at 1uM” value does the source give for `On1c(-c2ccccc2)nc2ccccc21` here?
**A.** Its value is 16.2%.

**Q.** `O=C1/C(=C\c2ccco2)SC(=S)N1C1CCCCC1` was tested. Which “hERG current change (%, negative = inhibition) at 1uM” value did it give?
**A.** The value was 12.8%.

**Q.** `CC(C)NC(=O)/C(C#N)=C\c1ccc(N(C)C)c(Br)c1` was tested. Which “hERG current change (%, negative = inhibition) at 1uM” value did it give?
**A.** The value was 12.7%.

**Q.** How did the “hERG current change (%, negative = inhibition) at 1uM” value turn out when `COc1ccc(CN2CN(S(=O)(=O)c3cccs3)c3nc4ccccc4nc32)cc1` was run?
**A.** Its value is 9.17%.

**Q.** How did the “hERG current change (%, negative = inhibition) at 1uM” value turn out when `Cc1c(NC(=O)COC(=O)C23CC4CC(CC(Br)(C4)C2)C3)c(=O)n(-c2ccccc2)n1C` was run?
**A.** Its value is 11.3%.

**Q.** Which “hERG current change (%, negative = inhibition) at 1uM” value does the source give for `O=C(c1ccc(Cl)cc1Cl)c1ncc(C(F)(F)F)cc1Cl` here?
**A.** Its value is 3.15%.

**Q.** For `CCN(C(=O)COC(=O)c1ccc(F)c(S(=O)(=O)N2CCOCC2)c1)C1CCS(=O)(=O)C1` (stereo not drawn), which “hERG current change (%, negative = inhibition) at 1uM” value is on record?
**A.** Its value is -6.02%.

**Q.** Which “hERG current change (%, negative = inhibition) at 1uM” value does the source give for `Cc1cccc(-c2n[nH]c(=S)n2/N=C/c2ccc(C)o2)c1` here?
**A.** Its value is 10.5%.

**Q.** For `O=C(O)C1C(c2ccccc2)C(C(=O)N2CCOCC2)C1c1ccccc1` (stereo not drawn), which “hERG current change (%, negative = inhibition) at 1uM” value is on record?
**A.** The value was -8.5%.

**Q.** `O=C(COc1ccccc1Cl)Nc1ccccc1C(=O)Nc1cccc(C(=O)O)c1` was tested. Which “hERG current change (%, negative = inhibition) at 1uM” value did it give?
**A.** The value was 19.2%.

**Q.** How did the “hERG current change (%, negative = inhibition) at 1uM” value turn out when `O=C(OCc1cccnc1)C1=Cc2ccccc2OC1` was run?
**A.** Its value is -73%.

**Q.** How did the “hERG current change (%, negative = inhibition) at 1uM” value turn out when `CNc1ccc(S(=O)(=O)NC)cc1[N+](=O)[O-]` was run?
**A.** The value was 14.8%.

**Q.** With `Cc1ccc2nc(NC(=O)c3ccccn3)sc2c1` as the compound, how does the “hERG current change (%, negative = inhibition) at 1uM” value read?
**A.** Its value is 3.26%.

**Q.** For `CC(C)CNC(=O)NC(=O)COC(=O)c1cccc(NS(=O)(=O)c2ccc(F)c(F)c2)c1`, which “hERG current change (%, negative = inhibition) at 1uM” value is on record?
**A.** Its value is -5.6%.

**Q.** With `O=C(c1ccc(Cl)cc1)c1c[nH]c(C(=O)C(Cl)(Cl)Cl)c1` as the compound, how does the “hERG current change (%, negative = inhibition) at 1uM” value read?
**A.** The value was 21.7%.

**Q.** With `COc1ccc(CNC(=O)Cn2ccc(NC(=O)OCc3ccccc3)nc2=O)cc1` as the compound, how does the “hERG current change (%, negative = inhibition) at 1uM” value read?
**A.** Its value is 21.5%.

**Q.** How did the “hERG current change (%, negative = inhibition) at 1uM” value turn out when `CC(C)(C)c1cnnn1-c1ccc([N+](=O)[O-])cc1` was run?
**A.** Its value is 8.67%.

**Q.** `CC(C)NC(=O)C(=O)NNC(=O)CCc1ccccc1` was tested. Which “hERG current change (%, negative = inhibition) at 1uM” value did it give?
**A.** The value was 6.98%.

**Q.** With `CC(NC(=O)c1ccc(OC2CCN(Cc3ccccn3)CC2)cc1)c1nccs1` (stereo not drawn) as the compound, how does the “hERG current change (%, negative = inhibition) at 1uM” value read?
**A.** The value was 8.82%.

**Q.** `O=C(CN(C(=O)CCC(=O)Nc1nccs1)c1ccccc1F)NCc1ccc2c(c1)OCO2` was tested. Which “hERG current change (%, negative = inhibition) at 1uM” value did it give?
**A.** The value was 11.6%.

**Q.** `COc1cc(/C=C/C(=O)O)cc(S(=O)(=O)NC2CC2)c1OC` was tested. Which “hERG current change (%, negative = inhibition) at 1uM” value did it give?
**A.** Its value is 6.48%.

**Q.** How did the “hERG current change (%, negative = inhibition) at 1uM” value turn out when `COC(=O)CCCC(=O)NC1CCCc2c1cnn2-c1ccc(F)cc1F` (stereo not drawn) was run?
**A.** Its value is 15%.

**Q.** Which “hERG current change (%, negative = inhibition) at 1uM” value does the source give for `O=C(CSc1nncn1-c1ccccc1)N1CCCC1` here?
**A.** Its value is 10.5%.

**Q.** How did the “hERG current change (%, negative = inhibition) at 1uM” value turn out when `Cc1ccccc1OCC(O)CN1C(=O)c2ccccc2C1=O` (stereo not drawn) was run?
**A.** The value was 13.3%.

**Q.** How did the “hERG current change (%, negative = inhibition) at 1uM” value turn out when `O=C1CCC(C(=O)Nc2cccc3ccccc23)N1` (stereo not drawn) was run?
**A.** The value was 11.1%.

**Q.** With `Cc1nc(-c2ccc(F)cc2)c(CC(=O)Nc2ccc(C)c(S(=O)(=O)N3CCOCC3)c2)s1` as the compound, how does the “hERG current change (%, negative = inhibition) at 1uM” value read?
**A.** The value was 5.55%.

**Q.** `COc1ccc(C(=O)NCC2(c3ccc(OC)c(OC)c3)CCCC2)c(OC)c1` was tested. Which “hERG current change (%, negative = inhibition) at 1uM” value did it give?
**A.** Its value is 10%.

**Q.** For `CC(=O)N(c1ccc(Cl)cc1)c1cn(C(C)=O)c2ccccc12`, which “hERG current change (%, negative = inhibition) at 1uM” value is on record?
**A.** Its value is -1.35%.

**Q.** How did the “hERG current change (%, negative = inhibition) at 1uM” value turn out when `O=C(c1ccc(CS(=O)(=O)c2ccc(Br)cc2)o1)N1CCN(c2ncccn2)CC1` was run?
**A.** Its value is -2.14%.

**Q.** How did the “hERG current change (%, negative = inhibition) at 1uM” value turn out when `N#CC1=C(N)Oc2n[nH]c(-c3ccc(F)cc3)c2C1c1ccncc1` (stereo not drawn) was run?
**A.** The value was 8.91%.

**Q.** How did the “hERG current change (%, negative = inhibition) at 1uM” value turn out when `COc1ccc(N2CCN(C(=O)c3cc(C)on3)CC2)cc1` was run?
**A.** The value was 11.2%.

**Q.** Which “hERG current change (%, negative = inhibition) at 1uM” value does the source give for `O=C1CCN(S(=O)(=O)c2ccccc2)CCN1CCOCc1cccc(F)c1` here?
**A.** Its value is 9.28%.

**Q.** Which “hERG current change (%, negative = inhibition) at 1uM” value does the source give for `CCOC(=O)CC(=O)CSc1nnc2sc3ccccc3n12` here?
**A.** The value was 13.8%.

**Q.** How did the “hERG current change (%, negative = inhibition) at 1uM” value turn out when `N#C/C(=C(/O)COC(=O)COc1cccc(Br)c1)c1nc2ccccc2[nH]1` was run?
**A.** Its value is 9.85%.

**Q.** For `CCOC(=O)c1c(CCl)nc2ccccc2c1-c1ccccc1`, which “hERG current change (%, negative = inhibition) at 1uM” value is on record?
**A.** The value was 18.5%.

**Q.** How did the “hERG current change (%, negative = inhibition) at 1uM” value turn out when `Cc1cc(C)n(-c2cccc(C(=O)O)c2)n1` was run?
**A.** Its value is 12.5%.

**Q.** With `O=C(O)COc1ccccc1/C=N/NC(=O)CN1CCN(Cc2ccccc2Cl)CC1` as the compound, how does the “hERG current change (%, negative = inhibition) at 1uM” value read?
**A.** Its value is 10.4%.

**Q.** With `O=C1C(c2cc(=O)c3ccccc3[nH]2)=C(O)c2ccccc21` as the compound, how does the “hERG current change (%, negative = inhibition) at 1uM” value read?
**A.** The value was 9.75%.

**Q.** For `COc1cc(C(=O)NCc2nc(C)cs2)ccc1OC1CCN(C(C)=O)CC1`, which “hERG current change (%, negative = inhibition) at 1uM” value is on record?
**A.** The value was 9.19%.

**Q.** How did the “hERG current change (%, negative = inhibition) at 1uM” value turn out when `CCN1CCN(C(=O)CS(=O)Cc2nc(-c3cccc(C)c3)oc2C)CC1` (stereo not drawn) was run?
**A.** Its value is 7.3%.

**Q.** For `CC1CCC(NC(=O)C(C)N2C(=O)C3CCCCC3C2=O)CC1` (stereo not drawn), which “hERG current change (%, negative = inhibition) at 1uM” value is on record?
**A.** The value was 15.2%.

**Q.** `Cc1cccc(Cn2cnc3c(nnn3Cc3ccccc3F)c2=O)c1` was tested. Which “hERG current change (%, negative = inhibition) at 1uM” value did it give?
**A.** The value was -25.4%.

**Q.** Which “hERG current change (%, negative = inhibition) at 1uM” value does the source give for `O=C(CN1CCN(Cc2ccccc2F)C1=O)NCCc1ccc(Cl)cc1` here?
**A.** Its value is -31.4%.

**Q.** `CC(C)N(Cc1ccccc1)C(=O)CN1C(=O)c2ccccc2C1=O` was tested. Which “hERG current change (%, negative = inhibition) at 1uM” value did it give?
**A.** The value was 12%.

**Q.** With `CC(Sc1nnc(COc2ccc([N+](=O)[O-])cc2)n1C)C(=O)O` (stereo not drawn) as the compound, how does the “hERG current change (%, negative = inhibition) at 1uM” value read?
**A.** Its value is 5.88%.

**Q.** Which “hERG current change (%, negative = inhibition) at 1uM” value does the source give for `O=C(CSc1nc2ccccc2o1)Nc1ccc(N2CCOCC2)cc1` here?
**A.** The value was -6.03%.

**Q.** `Cc1cc(S(=O)(=O)N2CCN(CC(=O)NCCc3cccs3)CC2)ccc1Br` was tested. Which “hERG current change (%, negative = inhibition) at 1uM” value did it give?
**A.** The value was 6.46%.

**Q.** For `Cc1cccc(-c2nc(Nc3ccc(O)cc3)c3ccccc3n2)c1`, which “hERG current change (%, negative = inhibition) at 1uM” value is on record?
**A.** The value was 7.61%.

**Q.** Which “hERG current change (%, negative = inhibition) at 1uM” value does the source give for `NC(=S)N/N=C/c1cccc(Br)c1` here?
**A.** Its value is 8.52%.

**Q.** How did the “hERG current change (%, negative = inhibition) at 1uM” value turn out when `CCc1cc2c(-c3ccccc3)cc(=O)oc2cc1OC(C)C(=O)NCC1CCC(C(=O)O)CC1` (stereo not drawn) was run?
**A.** The value was 17.8%.

**Q.** `CCOC(=O)c1ccc2ncc(C(=O)OCC)c(NCc3ccco3)c2c1` was tested. Which “hERG current change (%, negative = inhibition) at 1uM” value did it give?
**A.** The value was 1.82%.

**Q.** With `Cc1cc(C(=O)NCCN2CCOCC2)ccc1[N+](=O)[O-]` as the compound, how does the “hERG current change (%, negative = inhibition) at 1uM” value read?
**A.** The value was 12.3%.

**Q.** `C=CCn1c(O)c(/C(C)=N/NC(=S)Nc2ccccc2)c(=O)[nH]c1=O` was tested. Which “hERG current change (%, negative = inhibition) at 1uM” value did it give?
**A.** The value was 13.9%.

Source: paper PMC4336329 (PLoS ONE, 2015)
